{"source": "the supplement of paper PMC8728848", "binders": {"B1": {"name": "PRKCE (Homo sapiens), Q02156 (protein)", "chain": "MVVFNGLLKIKICEAVSLKPTAWSLRHAVGPRPQTFLLDPYIALNVDDSRIGQTATKQKTNSPAWHDEFVTDVCNGRKIELAVFHDAPIGYDDFVANCTIQFEELLQNGSRHFEDWIDLEPEGRVYVIIDLSGSSGEAPKDNEERVFRERMRPRKRQGAVRRRVHQVNGHKFMATYLRQPTYCSHCRDFIWGVIGKQGYQCQVCTCVVHKRCHELIITKCAGLKKQETPDQVGSQRFSVNMPHKFGIHNYKVPTFCDHCGSLLWGLLRQGLQCKVCKMNVHRRCETNVAPNCGVDARGIAKVLADLGVTPDKITNSGQRRKKLIAGAESPQPASGSSPSEEDRSKSAPTSPCDQEIKELENNIRKALSFDNRGEEHRAASSPDGQLMSPGENGEVRQGQAKRLGLDEFNFIKVLGKGSFGKVMLAELKGKDEVYAVKVLKKDVILQDDDVDCTMTEKRILALARKHPYLTQLYCCFQTKDRLFFVMEYVNGGDLMFQIQRSRKFDEPRSRFYAAEVTSALMFLHQHGVIYRDLKLDNILLDAEGHCKLADFGMCKEGILNGVTTTTFCGTPDYIAPEILQELEYGPSVDWWALGVLMYEMMAGQPPFEADNEDDLFESILHDDVLYPVWLSKEAVSILKAFMTKNPHKRLGCVASQNGEDAIKQHPFFKEIDWVLLEQKKIKPPFKPRIKTKRDVNNFDQDFTREEPVLTLVDEAIVKQINQEEFKGFSYFGEDLMP"}}, "experiment_in_all_cases": "glycan array binding signal (z-score within array); higher = stronger binding", "conditions_in_all_cases": "glycan notation: IUPAC condensed, linker removed", "key": {"[1]": {"target": "Fuc(a1-2)[Gal(a1-3)]Gal(b1-4)[Fuc(a1-3)]Glc", "procedure,_shortened": "(§1)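 Columns mapping to the same glycan were averaged after glycan names were converted to IUPAC-condensed notation. The data come from 3228 arrays in the Consortium for Functional Glycomics database, limited to those with an available protein sequence. Binding is reported as a within-array Z-score averaged across arrays of one protein sequence and across linkers.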"}, "[2]": {"target": "Fuc(a1-2)[Gal(a1-3)]Gal(b1-4)[Fuc(a1-3)]GlcNAc", "procedure,_shortened": "as §1"}, "[3]": {"target": "Fuc(a1-2)[Gal(a1-3)]Gal(b1-4)[Fuc(a1-3)]GlcNAc(b1-3)GalNAc", "procedure,_shortened": "as §1"}, "[4]": {"target": "Fuc(a1-2)[Gal(a1-4)]Gal(b1-4)GlcNAc", "procedure,_shortened": "as §1"}, "[5]": {"target": "Fuc(a1-2)[GalNAc(a1-3)]Gal", "procedure,_shortened": "as §1"}, "[6]": {"target": "Fuc(a1-2)[GalNAc(a1-3)]Gal(b1-3)GalNAc(a1-3)[Fuc(a1-2)]Gal(b1-4)GlcNAc", "procedure,_shortened": "as §1"}, "[7]": {"target": "Fuc(a1-2)[GalNAc(a1-3)]Gal(b1-3)GlcNAc", "procedure,_shortened": "as §1"}, "[8]": {"target": "Fuc(a1-2)[GalNAc(a1-3)]Gal(b1-3)GlcNAc(b1-2)Man(a1-3)[Fuc(a1-2)[GalNAc(a1-3)]Gal(b1-3)GlcNAc(b1-2)Man(a1-6)]Man(b1-4)GlcNAc(b1-4)GlcNAc", "procedure,_shortened": "as §1"}, "[9]": {"target": "Fuc(a1-2)[GalNAc(a1-3)]Gal(b1-3)GlcNAc(b1-2)Man(a1-3)[Fuc(a1-2)[GalNAc(a1-3)]Gal(b1-3)GlcNAc(b1-2)Man(a1-6)]Man(b1-4)GlcNAc(b1-4)[Fuc(a1-6)]GlcNAc", "procedure,_shortened": "as §1"}, "[10]": {"target": "Fuc(a1-2)[GalNAc(a1-3)]Gal(b1-3)GlcNAc(b1-3)GalNAc", "procedure,_shortened": "as §1"}, "[11]": {"target": "Fuc(a1-2)[GalNAc(a1-3)]Gal(b1-3)GlcNAc(b1-6)GalNAc", "procedure,_shortened": "as §1"}, "[12]": {"target": "Fuc(a1-2)[GalNAc(a1-3)]Gal(b1-4)Glc", "procedure,_shortened": "as §1"}, "[13]": {"target": "Fuc(a1-2)[GalNAc(a1-3)]Gal(b1-4)GlcNAc", "procedure,_shortened": "as §1"}, "[14]": {"target": "Fuc(a1-2)[GalNAc(a1-3)]Gal(b1-4)GlcNAc(b1-2)Man(a1-3)[Fuc(a1-2)[GalNAc(a1-3)]Gal(b1-4)GlcNAc(b1-2)Man(a1-6)]Man(b1-4)GlcNAc(b1-4)GlcNAc", "procedure,_shortened": "as §1"}, "[15]": {"target": "Fuc(a1-2)[GalNAc(a1-3)]Gal(b1-4)GlcNAc(b1-2)Man(a1-3)[Fuc(a1-2)[GalNAc(a1-3)]Gal(b1-4)GlcNAc(b1-2)Man(a1-6)]Man(b1-4)GlcNAc(b1-4)[Fuc(a1-6)]GlcNAc", "procedure,_shortened": "as §1"}, "[16]": {"target": "Fuc(a1-2)[GalNAc(a1-3)]Gal(b1-4)GlcNAc(b1-3)Gal(b1-4)GlcNAc", "procedure,_shortened": "as §1"}, "[17]": {"target": "Fuc(a1-2)[GalNAc(a1-3)]Gal(b1-4)GlcNAc(b1-3)Gal(b1-4)GlcNAc(b1-3)Gal(b1-4)GlcNAc", "procedure,_shortened": "as §1"}, "[18]": {"target": "Fuc(a1-2)[GalNAc(a1-3)]Gal(b1-4)GlcNAc(b1-3)GalNAc", "procedure,_shortened": "as §1"}, "[19]": {"target": "Fuc(a1-2)[GalNAc(a1-3)]Gal(b1-4)[Fuc(a1-3)]GlcNAc", "procedure,_shortened": "as §1"}, "[20]": {"target": "Fuc(a1-2)[GalNAc(a1-3)]Gal(b1-4)[Fuc(a1-3)]GlcNAc(b1-3)GalNAc", "procedure,_shortened": "as §1"}, "[21]": {"target": "Fuc(a1-2)[GalNAc(a1-4)]Gal(b1-4)GlcNAc", "procedure,_shortened": "as §1"}, "[22]": {"target": "Fuc(a1-2)[GalNAc(b1-3)]Gal", "procedure,_shortened": "as §1"}, "[23]": {"target": "Fuc(a1-3)GlcNAc", "procedure,_shortened": "as §1"}, "[24]": {"target": "Fuc(a1-3)[Gal(b1-4)]Glc6S", "procedure,_shortened": "as §1"}, "[25]": {"target": "Fuc(a1-3)[Gal(b1-4)]GlcNAc", "procedure,_shortened": "as §1"}, "[26]": {"target": "Fuc(a1-3)[Gal(b1-4)]GlcNAc(b1-2)Man", "procedure,_shortened": "as §1"}, "[27]": {"target": "Fuc(a1-3)[Gal(b1-4)]GlcNAc(b1-2)Man(a1-3)[Fuc(a1-3)[Gal(b1-4)]GlcNAc(b1-2)Man(a1-6)]Man(b1-4)GlcNAc(b1-4)GlcNAc", "procedure,_shortened": "as §1"}, "[28]": {"target": "Fuc(a1-3)[Gal(b1-4)]GlcNAc(b1-2)Man(a1-3)[Fuc(a1-3)[Gal(b1-4)]GlcNAc(b1-2)Man(a1-6)]Man(b1-4)GlcNAc(b1-4)[Fuc(a1-6)]GlcNAc", "procedure,_shortened": "as §1"}, "[29]": {"target": "Fuc(a1-3)[Gal(b1-4)]GlcNAc(b1-3)Gal(b1-3)[Fuc(a1-4)]GlcNAc", "procedure,_shortened": "as §1"}, "[30]": {"target": "Fuc(a1-3)[Gal(b1-4)]GlcNAc(b1-3)GalNAc", "procedure,_shortened": "as §1"}}, "note": "Some of the results follow."}
{"binder": "B1", "values": [{"measurement": "glycan array binding signal (z-score)", "setting": "[1]", "result": -0.256}, {"measurement": "glycan array binding signal (z-score)", "setting": "[2]", "result": -0.304}, {"measurement": "glycan array binding signal (z-score)", "setting": "[3]", "result": -0.21}, {"measurement": "glycan array binding signal (z-score)", "setting": "[4]", "result": -0.321}, {"measurement": "glycan array binding signal (z-score)", "setting": "[5]", "result": -0.395}, {"measurement": "glycan array binding signal (z-score)", "setting": "[6]", "result": -0.368}, {"measurement": "glycan array binding signal (z-score)", "setting": "[7]", "result": -0.107}, {"measurement": "glycan array binding signal (z-score)", "setting": "[8]", "result": 0.143}, {"measurement": "glycan array binding signal (z-score)", "setting": "[9]", "result": -0.33}, {"measurement": "glycan array binding signal (z-score)", "setting": "[10]", "result": -0.371}, {"measurement": "glycan array binding signal (z-score)", "setting": "[11]", "result": -0.271}, {"measurement": "glycan array binding signal (z-score)", "setting": "[12]", "result": -0.427}, {"measurement": "glycan array binding signal (z-score)", "setting": "[13]", "result": -0.388}, {"measurement": "glycan array binding signal (z-score)", "setting": "[14]", "result": 0.015}, {"measurement": "glycan array binding signal (z-score)", "setting": "[15]", "result": -0.252}, {"measurement": "glycan array binding signal (z-score)", "setting": "[16]", "result": -0.297}, {"measurement": "glycan array binding signal (z-score)", "setting": "[17]", "result": -0.122}, {"measurement": "glycan array binding signal (z-score)", "setting": "[18]", "result": -0.23}, {"measurement": "glycan array binding signal (z-score)", "setting": "[19]", "result": 1.03}, {"measurement": "glycan array binding signal (z-score)", "setting": "[20]", "result": -0.161}, {"measurement": "glycan array binding signal (z-score)", "setting": "[21]", "result": -0.364}, {"measurement": "glycan array binding signal (z-score)", "setting": "[22]", "result": -0.329}, {"measurement": "glycan array binding signal (z-score)", "setting": "[23]", "result": -0.436}, {"measurement": "glycan array binding signal (z-score)", "setting": "[24]", "result": -0.386}, {"measurement": "glycan array binding signal (z-score)", "setting": "[25]", "result": -0.245}, {"measurement": "glycan array binding signal (z-score)", "setting": "[26]", "result": 2.21}, {"measurement": "glycan array binding signal (z-score)", "setting": "[27]", "result": 0.843}, {"measurement": "glycan array binding signal (z-score)", "setting": "[28]", "result": 0.033}, {"measurement": "glycan array binding signal (z-score)", "setting": "[29]", "result": -0.144}, {"measurement": "glycan array binding signal (z-score)", "setting": "[30]", "result": -0.364}]}
